# From the supplement of paper PMC3334620
# Over roughly 33,000 sequences, “E-score (-0.5 to 0.5)” has its median near -0.054; the highest 2% begin near 0.35. The list shows a part of the results.
# Biological target: T1, Stb5 (UniProt P38699)
# T1 sequence: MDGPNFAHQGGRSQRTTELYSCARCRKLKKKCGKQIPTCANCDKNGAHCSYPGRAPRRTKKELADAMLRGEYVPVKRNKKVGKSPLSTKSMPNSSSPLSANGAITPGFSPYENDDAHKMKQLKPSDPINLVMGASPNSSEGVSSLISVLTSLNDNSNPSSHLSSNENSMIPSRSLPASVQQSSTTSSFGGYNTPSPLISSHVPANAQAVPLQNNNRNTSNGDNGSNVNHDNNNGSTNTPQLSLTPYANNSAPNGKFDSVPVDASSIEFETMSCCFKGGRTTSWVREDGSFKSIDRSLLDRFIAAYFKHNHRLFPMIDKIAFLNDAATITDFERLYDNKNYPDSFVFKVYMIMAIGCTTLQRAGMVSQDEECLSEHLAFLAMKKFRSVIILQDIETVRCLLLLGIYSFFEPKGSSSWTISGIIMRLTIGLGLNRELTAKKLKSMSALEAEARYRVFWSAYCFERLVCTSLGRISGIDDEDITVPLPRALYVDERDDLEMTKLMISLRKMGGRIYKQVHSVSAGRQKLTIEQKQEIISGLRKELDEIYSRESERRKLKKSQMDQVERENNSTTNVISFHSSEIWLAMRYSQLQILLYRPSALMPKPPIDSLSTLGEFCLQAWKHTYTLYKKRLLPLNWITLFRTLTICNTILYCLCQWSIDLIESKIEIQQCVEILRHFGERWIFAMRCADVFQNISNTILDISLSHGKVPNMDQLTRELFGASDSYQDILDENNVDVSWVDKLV
# Assay: PBM E-score (8-mer binding enrichment) (E-score (-0.5 to 0.5)); higher = stronger / more preferred TF binding; most listed sequences are background and not binding sites
# Conditions: protein concentration: 200 nM; construct: GST-full length
# In short: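 Bound GST-tagged yeast transcription factors, applied at about 100-200 nM to double-stranded universal all-10-mer Agilent arrays, were detected with fluorescent anti-GST. Scans were normalised with masliner. A modified Wilcoxon-Mann-Whitney statistic, the E-score, was assigned to each ungapped eight-base word pooled with its reverse complement by the Universal PBM Analysis Suite.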
row,Sequence,PBM E-score
1,CGACGTGC,0.106
2,ATCGTCTA,-0.235
3,AAGGAGTA,-0.147
4,CCTCGAAA,-0.126
5,AATTGTCG,0.0562
6,TATGGCCA,-0.203
7,AGTCGACA,-0.336
8,CTTAACTC,0.0834
9,CATGTAGC,-0.0248
10,AAGCGTGC,-0.171
11,TCTTTGCA,-0.0517
12,ATGACCCG,-0.0494
13,GCATACGA,-0.191
14,CCGCAGAA,0.241
15,CGTTTTCC,-0.096
16,CTCAGGTC,0.0107
17,CATGACCC,-0.00641
18,CTCAACCC,-0.0727
19,GCCACCAC,-0.185
20,CACTTGCC,-0.0434
21,ATTTATGG,-0.0167
22,GGAACAGA,-0.104
23,CTGCCTAA,-0.258
24,CGTAGCAG,0.0285
25,GGACTTCA,0.225

row,Sequence,PBM E-score
1,ACTTGGCA,-0.12
2,AGCCTATG,-0.163
3,GTTCTCAA,0.0107
4,CGACGCAC,0.187
5,GATGGACC,-0.0251
6,ACTTCGCG,-0.00615
7,ACTACAAG,-0.0704
8,AATACTCG,-0.102
9,CGTCTGTC,-0.0153
10,CTACAAGA,-0.116
11,CGCTTTCA,0.00451
12,GACATGAA,-0.114
13,CGCGCACG,0.118
14,CTCTAACC,-0.098
15,CAGCTCCG,0.136
16,CTTCTAAC,0.0168
17,AACTATAA,0.164
18,TAAGCCTA,-0.155
19,ACTCCCAC,-0.0914
20,GATGGCCA,-0.25
21,GTGCGTTA,0.0777
22,TGATACAA,-0.0289
23,ACCATTCT,-0.263
24,GACAGGAA,-0.0429
25,CACCCTGA,-0.243

row,Sequence,PBM E-score
1,CGATCCGA,0.176
2,CTGCGCAA,0.117
3,CAAAACAC,-0.00658
4,TAACTACA,-0.0813
5,CACCCTCC,0.0839
6,CTGTATGA,-0.0297
7,ACGTAGAG,-0.116
8,AAACCTTC,-0.155
9,AACGAGCT,-0.246
10,CCTCAGCG,0.0495
11,CCAGTAGC,0.143
12,GATTGTTA,0.0723
13,ATGAACTG,-0.305
14,AGTGGAAG,-0.124
15,CCCGACTC,0.33
16,AGCTACTG,-0.0614
17,TGATTACA,-0.0389
18,TAACGCCA,0.099
19,ATGCCTAG,0.0293
20,CAACCTCC,0.124
21,ATCAAGAA,-0.292
22,AGTATCCA,0.0226
23,ACCCCTAT,0.0068
24,AAGATGAA,-0.273
25,GTCAACGA,-0.189

row,Sequence,PBM E-score
1,CGACCTGC,0.181
2,CGATGTGC,0.042
3,CAGTGTGA,-0.254
4,ATCGCCAA,-0.162
5,GGGTCGCA,0.0989
6,ACCATGCG,-0.0973
7,ATGTCCTC,-0.147
8,CATTGGTA,0.14
9,GCTCTTGA,-0.1
10,CGCCTATC,0.0636
11,CGTGTGGC,-0.164
12,AGTCATGG,-0.218
13,ACTACCAG,0.0101
14,CTCACACC,0.158
15,AGAGAATG,-0.367
16,AATAAAGT,-0.111
17,CCCTGCTA,-0.129
18,GCTATGCC,-0.0017
19,TCTATCAA,-0.231
20,AACAAGTT,-0.0683
21,AGTGCAGA,0.0606
22,AGTACAGC,-0.146
23,AAAACCGC,0.305
24,AGGTCGTA,-0.087
25,ACTCCTCA,-0.218

row,Sequence,PBM E-score
1,ATACAATC,0.0508
2,AAACTCCA,-0.032
3,ACGACTAG,-0.194
4,CATGGCGC,0.18
5,CACGACGC,0.0771
6,ACGGGGCG,0.298
7,CGCCCGCC,0.258
8,CGCATCCG,0.103
9,AGATTTGC,-0.159
10,ATCCATTA,-0.0357
11,ATACATCG,0.0992
12,AACGCATG,-0.164
13,ACTGACTG,-0.314
14,TAATACTA,-0.0352
15,AACGGACA,0.298
16,AGGCGTAC,-0.073
17,ACGGAGCC,0.263
18,CCTAATGC,-0.0249
19,CTGATAAC,-0.0704
20,ATCTAAAA,-0.0858
21,CGCACTCC,0.1
22,AATTTTTC,-0.0701
23,ACCCGAAT,0.0962
24,CTAGTTTC,-0.0182
25,GAACCGCC,0.187

row,Sequence,PBM E-score
1,TCCCCGGA,0.203
2,CGTTCGCC,0.0418
3,CAGGGGAA,-0.281
4,CGTAAGGC,-0.0819
5,ACCTCGGC,0.164
6,ACAGTGCC,-0.00196
7,GACTTAGC,0.0466
8,ACTTGTAG,-0.0788
9,GAAAATTC,0.112
10,TCCTCGAA,-0.126
11,ATCCGCAC,0.124
12,CCATAAAG,-0.242
13,AGACGCAT,-0.0918
14,ATCTTGCC,0.0208
15,GGATACAC,-0.0245
16,CACAATCA,-0.158
17,TTACCCAA,-0.176
18,ACCACACT,0.0353
19,CGGTATCC,0.211
20,CTGAGGGC,-0.225
21,ATAAATAT,0.208
22,GACGAAGA,-0.0443
23,ATAATTGA,-0.142
24,TAGCTTGA,-0.0773
25,CCCTCGCG,-0.00053

row,Sequence,PBM E-score
1,TAGTGCGA,-0.277
2,ATCCCTCC,0.0425
3,CGTGTAAC,0.134
4,TCGCACCA,-0.0304
5,CGCACGGA,0.249
6,GAGATTAC,0.109
7,CTACACCC,-0.111
8,CGGTCGCC,0.109
9,GCGGCCAC,0.069
10,AGCTACCC,-0.161
11,CAGACATG,-0.136
12,ATTATGCC,0.228
13,ACAACCGA,0.191
14,CGACCGTC,0.0903
15,AGCGCGCG,0.0328
16,AATTCACT,0.0151
17,ATTGAAGA,-0.31
18,ATCCTCAC,-0.104
19,ACAGTCCT,-0.246
20,AAACCTCG,0.063
21,AGTGAGAA,-0.104
22,GCTCGCTA,-0.0566
